Results reported in PubChem BioAssay (NCATS).
Some of the results follow. Shown are side measurements of this screen, not its main read-out; they come without a call. Most of these compounds were active or inconclusive in the main read-out, so they are no random draw. The note in brackets gives the kind of curve behind each potency; many fits are weak.

Assay: qHTS Assay for Lipid Storage Modulators (AID 1519)
Conditions: Drosophila S3 cells, BODIPY lipid droplet/cell ratio, laser cytometry, cells loaded with oleic acid
In short: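 Cells seeded at 5,000 per well were treated with compounds over a concentration series and loaded with oleic acid (400 uM, as added). Lipid droplet fluorescence (488 nm excitation, 500-530 nm channel) was read by laser-scanning cytometry and normalized to 20 uM Triacsin C.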

[1] = measured here: cell count channel max response
[2] = measured here: lipid (BODIPY) channel AC50
[3] = measured here: lipid channel max response
Tags tell the direction and shape of the fitted curve.

SMILES	max response [1] [%]	AC50 [2]	max response [3] [%]	AC50 (measured here: cell number channel AC50)
CCNc1ncc2nc(CCc3ccccc3)c(=O)n(CCOC)c2n1	12.5	22.4 nM [rising, full curve, poor fit]	21.5	–
COc1ccc(NC(=O)N2CC[C@@]3(CCCN(C(=O)c4c(C)noc4C)C3)C2)cc1	28.9	12.6 nM [rising, full curve]	41.7	–
N#CCCn1c(=O)c(-c2ccccc2)nc2cnc(N3CCOCC3)nc21	28.8	141 nM [rising, full curve]	33.5	–
COc1ccc(CNc2nc(-c3cccnc3)nc3ccccc23)c(OC)c1	13	35.5 nM [rising, full curve, poor fit]	15.8	–
O=c1c(CCc2ccccc2)nc2cnc(N3CCOCC3)nc2n1CCc1ccccc1	26	1000 nM [rising, full curve]	32.9	–
COCC(=O)N1CCC2(CC1)CN(Cc1ccccc1OC)C2	26.2	39800 nM [rising, single point]	38.8	–
CCOC(=O)C1(O)Oc2cc(OC)cc(OC)c2C(=O)C1c1ccccc1 (stereo unspecified)	46.5	28200 nM [rising, partial curve]	64.4	–
CNc1cc(-c2ccccc2C)ncn1	27	141 nM [rising, full curve, poor fit]	28.2	–
O=C(c1csnn1)N1CCC[C@@]2(CCN(c3ccncc3)C2)C1	23.7	14100 nM [rising, single point]	32.4	–
CC1CCC2[C@](C)(CO)C(O)CC[C@]2(C)C12CCC(CO)(CCO)O2 (stereo partly specified)	-34.5	–	-23.2	1120 nM [falling, partial curve, poor fit]
O=c1cnc2cnc(OCc3ccccc3)nc2n1Cc1ccc(F)cc1	18.7	3160 nM [rising, full curve]	30.6	–
CN(C)C(=O)c1ccc(-c2nc(Nc3ccccc3)c3ccccc3n2)cc1	7.79	56.2 nM [rising, full curve]	11	–
